Results: PubChem BioAssay AID1345082 (National Center for Advancing Translational Sciences (NCATS), 2018)
Where “and” joins values, the source holds several entries; their conditions need not be identical. Identical values can stand only once. Screen size: about 94,000 compounds; about 4,000 (4.3%) were called active. Inconclusive means that the source gave no clear call. Such entries were picked first, then a sample of the others. The call rests on the fitted dose curve; in most records, active means well fitted inhibition curve with a large enough effect; inconclusive means small, poorly fitted or top-dose-only effect; inactive means no such curve, though single readings can be large or run the other way. A potency beside an inconclusive call is a rough fit, not a confirmed value.
On the % scale 0 is the no-effect control and ±100 the full control effect; potency means the concentration at half of the fitted maximal effect; tags describe the fitted curve by direction and shape.

Assay: Cytotoxic Profiling in NIH 3T3 Cell Line of Diverse Libraries Using Quantitative High-Throughput Screening; further: nearly all actives have a fitted effect of over 55% in size
Details: NIH 3T3 viability, CellTiter-Glo ATP luminescence, 48-72 h; activity change, negative = cytotoxicity: at 96.7 µM (top of the series) unless noted; series mostly up to 96.7 µM
Method in brief: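 Cytotoxicity was measured by CellTiter-Glo ATP luminescence after 48 or 72 h compound exposure at 37 °C. Mouse NIH 3T3 fibroblasts were seeded at 400 cells/well and dosed by 23 nL pin transfer.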
In the case of `Cc1nn2c(c1-c1ccccc1C(C)C)N(Cc1ccc3c(c1)CCO3)CCC2`, the Potency is reported as active: 28.2 µM. For `COc1ccc(CC(=O)N2CCC(n3c(=O)[nH]c4ccccc43)CC2)cc1`, the Potency was inconclusive: 56.2 µM [inhibitor, partial curve, poor fit]. With `O=C(c1ccn[nH]1)N1CCC(c2nc(CCOCC3CC3)no2)C1` (stereo not drawn) the “activity change, negative = cytotoxicity” value was inactive: -11.8%. With `O=[S+]([O-])(NCC1CN(Cc2ccc3c(c2)CCO3)CC12CN(c1ccccc1)C2)c1ccccc1` (stereo not drawn) the Potency was inconclusive: 50.1 µM [inhibitor, partial curve, poor fit]. In the case of `COc1ccccc1CNC(=O)C1CCN(C(=O)c2ccc(-c3cncnc3)cc2)CC1`, the Potency is reported as inconclusive: 44.7 µM [inhibitor, partial curve, poor fit]. In the case of `Cc1nc2c(c(N3CCCC(COc4cccc(F)c4)C3)n1)CCNCC2` (stereo not drawn), the Potency is reported as inconclusive: 35.5 µM [inhibitor, full curve, poor fit]. With `CC(C)C(=O)N1CCC2(CC1)CC(N(Cc1ccccc1)C1CC1)CCO2` (stereo not drawn) the Potency was inconclusive: 50.1 µM [inhibitor, partial curve, poor fit]. For `CN(C)c1ccc(C(=O)N2CCC3(CC2)NC(=O)N(c2ccccc2)N3)cc1`, the Potency was inconclusive: 25.1 µM [inhibitor, partial curve]. With `COCc1ccccc1-c1nccc2c(=O)cc(-c3cnn(C)c3)oc12` the Potency was inconclusive: 44.7 µM [inhibitor, partial curve, poor fit]. In the case of `CC(C)C(=O)N1CCCC1C(=O)N1CCC(c2nc3ncccc3[nH]2)CC1` (stereo not drawn), the “activity change, negative = cytotoxicity” value is reported as inactive: -3.74%. In the case of `O=C(c1ccc(C(F)(F)F)cc1)N1CCn2c(nn(-c3ccc(C(F)(F)F)cc3)c2=O)C1`, the Potency is reported as inconclusive: 50.1 µM [inhibitor, partial curve, poor fit]. For `COCc1cc(C[C@@H]2CC[C@H](O)[C@@H](CNCc3ccccc3OC)O2)no1`, the “activity change, negative = cytotoxicity” value was inactive: 2.56% [at 174 µM]. In the case of `CCCn1c(C)cnc1CC1CCCN(C(=O)Cc2cccc(F)c2)C1` (stereo not drawn), the “activity change, negative = cytotoxicity” value is reported as inactive: -12.6%. In the case of `C[S+](=O)([O-])CCn1ncc2cc(OCC3CCN(C(=O)OC4CCCC4)CC3)ccc21`, the Potency is reported as inconclusive: 50.1 µM [inhibitor, partial curve, poor fit]. For `CN(C)CCN(C)C(=O)c1ccc(-c2ncc3cnc(-c4cccc(F)c4)cn23)cc1`, the Potency was active: 44.7 µM. In the case of `COCCNC(=O)C1COC2(CCN(C(=O)c3ccc(OC)cc3)CC2)N1C(=O)c1cccc(C)c1` (stereo not drawn), the “activity change, negative = cytotoxicity” value is reported as inactive: -9.75%. In the case of `Cc1cn2nc(C(=O)Nc3ccccc3)cc2c(N(C)Cc2ccccc2)n1`, the Potency is reported as inconclusive: 31.6 µM [inhibitor, partial curve]. In the case of `Cc1onc(C(=O)N2C[C@@H](Oc3ccccc3)C[C@H]2C(=O)NC2CC2)c1Cn1cccn1`, the Potency is reported as inconclusive: 50.1 µM [inhibitor, partial curve, poor fit]. For `Fc1ccccc1CCC1CCCN(c2nnnn2-c2ccccc2)C1` (stereo not drawn), the Potency was inconclusive: 31.6 µM [inhibitor, partial curve, poor fit]. With `O=C(Cn1c2c(c(=O)n1Cc1ccccc1)CCN(Cc1ccccc1)C2)NCc1cccc(F)c1` the Potency was inconclusive: 22.4 µM [inhibitor, full curve]. With `COc1ccc(-c2cccc(C(=O)N3CCN(C(=O)c4ccccc4F)CC3)c2)nn1` the “activity change, negative = cytotoxicity” value was inactive: -7.05%. With `O=C(C1CCC1)N1CCN(C2CCN(Cc3cccnc3)C2=O)CC1` (stereo not drawn) the “activity change, negative = cytotoxicity” value was inactive: 3.38%. In the case of `COc1ccc2c(c1)OC[C@@H]1CN(CCC#N)C(=O)CCN(C(=O)CC(C)C)[C@H]21`, the Potency is reported as inconclusive: 70.8 µM [inhibitor, single point]. For `O=C(NC1CCCCC1)N[C@H]1CO[C@H]2[C@@H]1OC[C@@H]2n1nnnc1Oc1ccc(-n2ccnc2)cc1`, the Potency was inconclusive: 44.7 µM [inhibitor, partial curve, poor fit]. With `CC(=O)Nc1ccc(S(=O)(=O)Nc2ccc3n(c2=O)C[C@H]2C[C@@H]3CN(C(=O)NC3CCCCC3)C2)cc1` the “outcome” value was “inactive”. With `CC(C)c1nc2c(c(-c3ccc(O)cc3)n1)CCN(Cc1ccc(F)cc1)CC2` the Potency was inconclusive: 50.1 µM [inhibitor, partial curve, poor fit]. In the case of `Cc1cc(=O)n(CC(=O)Nc2cccc(Cl)c2C)c(N2CCOCC2)n1`, the “outcome” value is reported as “inactive”. In the case of `Cc1ccc(C(=O)NC2CCN(c3nccc(Nc4ccccc4F)n3)CC2)cc1`, the Potency is reported as inconclusive: 50.1 µM [inhibitor, single point]. In the case of `Cc1ccc(-n2c(C3CCN(C(=O)Cc4ccccc4Cl)CC3)n[nH]c2=O)cc1`, the Potency is reported as inconclusive: 14.1 µM [inhibitor, full curve, poor fit]. In the case of `O=C(NCCc1ccc(Cl)cc1)C1CN(c2cccc(Cl)c2)C(=O)N1` (stereo not drawn), the Potency is reported as inconclusive: 50.1 µM [inhibitor, partial curve, poor fit] and active: 35.5 µM. In the case of `CCc1ccc(C(=O)NC2CCN(c3cnn(CC4CC4)c(=O)c3)CC2)cc1`, the Potency is reported as inconclusive: 50.1 µM [inhibitor, partial curve, poor fit]. For `O=C(c1cc2ccccc2[nH]1)N1CCN2CCS(=O)(=O)N(C3CC3)C(=O)C2C1` (stereo not drawn), the “activity change, negative = cytotoxicity” value was inactive: -24.1%. With `COc1cccc(C(=O)N2CCC3(CC2)SCC(=O)N3c2ccc(F)cc2)c1` the “activity change, negative = cytotoxicity” value was inactive: -0.771%. With `O=C(NCCc1ccccc1)c1ccc2nnc(-c3cccc(C(F)(F)F)c3)n2c1` the Potency was active: 39.8 µM. For `C=CCN1C[C@H]2COc3c(OCC)cccc3[C@H]2N(C(=O)OC)CCC1=O`, the Potency was inconclusive: 50.1 µM [inhibitor, single point]. With `COc1ccc(-c2cnc3n[nH]c(-c4ccc5c(c4)OCO5)c3n2)cc1` the Potency was inconclusive: 50.1 µM [inhibitor, partial curve, poor fit]. In the case of `COc1cccc(CN2CC(O)CN(S(=O)(=O)c3ccc(F)cc3)CC2=O)c1OC` (stereo not drawn), the Potency is reported as inconclusive: 79.4 µM [inhibitor, partial curve, poor fit]. In the case of `O=C(NCc1ccccc1)[C@@H]1Cc2nc[nH]c2CN1Cc1ccc(Cl)cc1`, the Potency is reported as inconclusive: 70.8 µM [inhibitor, partial curve, poor fit]. In the case of `CC(c1ccccc1)N1Cc2cc(NC(=O)Cc3cccs3)ccc2OCC1=O` (stereo not drawn), the Potency is reported as inconclusive: 50.1 µM [inhibitor, partial curve, poor fit]. With `COCC1CN(Cc2ccc(Cl)cc2)CC12CCNCC2` (stereo not drawn) the Potency was inconclusive: 50.1 µM [inhibitor, single point]. With `Cc1cc(C)n(CC(=O)N2CCN3CCS(=O)(=O)N(C4CC4)C(=O)C3C2)n1` (stereo not drawn) the “activity change, negative = cytotoxicity” value was inactive: -1.96%. With `COc1ccccc1CN1CCC2(CC1)CC(C(=O)O)N(C(C)=O)C2` (stereo not drawn) the “activity change, negative = cytotoxicity” value was inactive: 1.5%. With `O=C1NCc2ccccc2CC12CCCCN2Cc1ccccc1F` (stereo not drawn) the Potency was inconclusive: 79.4 µM [inhibitor, single point]. In the case of `Cc1ccc(-c2cc3c(nc2-c2ccccc2)nc(C(=O)NCCN(C)C)n3C)cc1`, the Potency is reported as active: 11.2 µM. For `O=C(C1CCCC1)N1CCCN(c2nc3ncccc3o2)CC1`, the “activity change, negative = cytotoxicity” value was inactive: -22.5% [at 138 µM]. With `COc1cccc(N2C(=O)NC(=NC3CCCC3)C23CCCN(C(=O)c2ccccc2OC)C3)c1` (stereo not drawn) the Potency was inconclusive: 31.6 µM [inhibitor, full curve]. In the case of `O=C1CC2(CCN(c3nc(-c4ccccc4)nc4c3CCC4)CC2)CN1`, the Potency is reported as inconclusive: 89.1 µM [inhibitor, single point]. In the case of `CC1=C(C(=O)NC(C)(C)C)C(c2ccc(Cl)cc2)N2C(CC(=O)N3CCCC3)=CSC2=N1` (stereo not drawn), the Potency is reported as active: 44.7 µM. For `O=C(NCCCc1ccccc1)c1ccc2nc(-c3ccccn3)oc2c1`, the Potency was inconclusive: 44.7 µM [inhibitor, partial curve, poor fit]. With `C#CCNC(=O)C1CCc2nnc(C3CCN(C(=O)Nc4ccc(Cl)cc4)CC3)n21` (stereo not drawn) the “activity change, negative = cytotoxicity” value was inactive: 4.9%. In the case of `Cc1nn(-c2ccccc2)c2c1C(C)N(C1CCN(C(=O)NC3CCCC3)CC1)C2=O` (stereo not drawn), the Potency is reported as inconclusive: 44.7 µM [inhibitor, partial curve, poor fit]. With `COc1ccc(CN2C(=O)CO[C@H]3CN(CC4CC4)C[C@H]32)cc1` the Potency was inconclusive: 79.4 µM [inhibitor, partial curve]. For `COCCn1c(=O)c(C(=O)N2CCN(C(=O)c3cccc(OC)c3)CC2)nc2cccnc21`, the Potency was inconclusive: 89.1 µM [inhibitor, partial curve, poor fit]. With `COc1ccc(CC2CCOC3(CCN(C(=O)CC(C)C)CC3)C2)cc1` (stereo not drawn) the Potency was inconclusive: 31.6 µM [inhibitor, partial curve, poor fit]. In the case of `COc1cccc(-c2cccc(CN3CCCC3C(=O)N3CCCCC3)c2)c1` (stereo not drawn), the Potency is reported as inconclusive: 50.1 µM [inhibitor, partial curve, poor fit]. In the case of `COc1ccc(CNC(=O)c2c(OC)cc(=O)n3c2CCCC3)c(OC)c1`, the “outcome” value is reported as “inactive”. For `COc1ccc(CN2C(=O)O[C@@H]3CN(C(=O)NC(C)(C)C)C[C@@H]32)cc1OC`, the “outcome” value was “inactive”. With `CCN1C(=O)C2CC3(CCN(C(=O)CCc4nc5ccccc5[nH]4)CC3)CN2C1=O` (stereo not drawn) the “activity change, negative = cytotoxicity” value was inactive: -7.68%. With `CCN(CC)CC[C@H]1CN(C(=O)c2ccc(OC)cc2)CC[C@H]1CC(=O)O` the “activity change, negative = cytotoxicity” value was inactive: 0.204% [at 138 µM]. With `O=C(NC[C@H]1O[C@@H](CO)[C@@H](O)[C@H]1N1CCc2ccccc2C1)Nc1cccc(Cl)c1` the Potency was inconclusive: 89.1 µM [inhibitor, single point]. With `COC(=O)C1=C(C)N=C2SC=C(CC(=O)NCc3ccc(F)cc3)N2C1c1cccc(OC)c1` (stereo not drawn) the Potency was inconclusive: 39.8 µM [inhibitor, partial curve]. With `Cc1cc(C)n(CCC(=O)N2CC(c3noc(COc4ccc(F)cc4)n3)C2)n1` the Potency was inconclusive: 50.1 µM [inhibitor, partial curve, poor fit]. With `Cc1cc(C)n(-c2cccc(CN(C)C(=O)c3cc(C(C)C)no3)c2)n1` the Potency was inconclusive: 28.2 µM [inhibitor, full curve].
